Assay results: the RNAGym collection of RNA variant scans (doi:10.7554/elife.90254)
Read counts are not given, so values of variants with three or more changes are uncertain.

B1: LINE1-mini (parent)
chain: GGCAGAGCUCAACACAGCGUGGCAAAGUGGCUGUGGCUAGACUGCC

Variants of: B1
Assay: self-cleavage, relative activity (ratio to wild type); higher = more cleavage; in vitro, sequencing; the parent is a self-cleaving ribozyme

Variant	self-cleavage
GGCAGAGCCCAACACAGCGUGACAAAUUGGCUGUGGCUAGACUGCC [U9C G22A G27U]	0.06
GGCAGAGCCCAACACAUCGUGGCAAAGUGGCUGUGGCUAGACGGCC [U9C G17U U43G]	0.02
GGCAGAGCCCAACACACCGUGUCAAAGUGGCUGUGGCUAGACUGCC [U9C G17C G22U]	0.04
GGCAGAGCCCAACACAGCGUGUAAAAGUGGCUGUGGCUAGACUGCC [U9C G22U C23A]	0.01
GGCAGAGCCCAACACAUCGUUGCAAAGUGGCUGUGGCUAGUCUGCC [U9C G17U G21U A41U]	0
GGCAGAGCCCAACACAGCUUGGCAAUGUGGCAGUGGCUAGACUGAC [U9C G19U A26U U32A C45A]	0.01
GGCAGAGCCCAACACAGCGUGGCAAAGUGCCUGUGGCUAGAAUGCC [U9C G30C C42A]	0.04
GGCAGAGCCCAACACAGCGUAGCAAAGUGGCUGUGGCUACACUGCC [U9C G21A G40C]	0
GGCAGAGCCCAACACACCGUGGCAAAGUGGUUGUGGCUAGACUACC [U9C G17C C31U G44A]	0.03
GGCAGAGCCCAACACAGCAUGGCAAAGUGGCUGUGGCUAGACUGCA [U9C G19A C46A]	0.01
GGCAGAGCCCAACACAGCGUGGCAAAGUCGCUGUGCCUAGACUGCC [U9C G29C G36C]	0.01
GGCAGAGCCCAACACAGCGUGACAAAGUGGCUGUGAUUAGUCUGAC [U9C G22A G36A C37U A41U C45A]	0.01
GGCAGAGCCCAACACACCAUGGCAAAGUGGCUGUGGCUAGACUGCC [U9C G17C G19A]	0.03
GGCAGAGCCCAACACAGCGUGGCAAAGUGACUGUGGAUAGACUGCA [U9C G30A C37A C46A]	0.01
GGCAGAGCCCAACACAGCGUGGCAAAGUGAAUGUGGCUAGACUGCC [U9C G30A C31A]	0.04
GGCAGAGCCCAACACAUCGUGGCGAAGUGGCUGUAGCUAGACUGCC [U9C G17U A24G G35A]	0
GGCAGAGCCCAACACAGCGUGUCAAAGUGGUUGGGGCUAGACUGCA [U9C G22U C31U U34G C46A]	0.01
GGCAGAGCCCAACACAGCGUGGCAAACAGGCUGUGGCUAGACUGCC [U9C G27C U28A]	0.01
GGCAGAGCCCAACACAGCGUGGCAAAGUAGCUGUGUCUAGCCUGCC [U9C G29A G36U A41C]	0.05

Variant	self-cleavage
GGCAGAGCCCAACACAGCGUGGCAAAGUUGCUGUUGCUACCCUGCC [U9C G29U G35U G40C A41C]	0.01
GGCAGAGCCCAACACAGCGUAGCAAAGUGGCUGUGUCUAGACUGCC [U9C G21A G36U]	0.04
GGCAGAGCCCAACACAGCGUGGCAAAGUGCCUGGGACUAGACUGCC [U9C G30C U34G G36A]	0
GGCAGAGCCCAACACAACGUGGCAAAGGGGCUGUGGUUAGACUGCC [U9C G17A U28G C37U]	0
GGCAGAGCCCAACACAACGUGGCAAAGUGGCUAUGGCUAGACUGCC [U9C G17A G33A]	0.02
GGCAGAGCCCAACACAGCGUGGCAAAGUGACUAUGACUUGACUGCC [U9C G30A G33A G36A A39U]	0.02
GGCAGAGCCCAACACAGCGUUGCAAAGUGGAUGUGGCUAGACUGGC [U9C G21U C31A C45G]	0.04
GGCAGAGCCCAACACAGCAUGGCGAAGUGGCUGUGCCCAGACUGCC [U9C G19A A24G G36C U38C]	0
GGCAGAGCCCAACACAGCGUGUCAAAGUGGCUGUGGCUAGACUUCC [U9C G22U G44U]	0.02
GGCAGAGCCCAACACAGCAUGGCAAAGCGGCUGUUGCUAGACUGCC [U9C G19A U28C G35U]	0.02
GGCAGAGCCCAACACAGCUUGGCACAGUGCCUGUGGCCAGACUGCC [U9C G19U A25C G30C U38C]	0.01
GGCAGAGCCCAACACAGCGUGGCAAAGUUGCUGUGGCUAUACUGCC [U9C G29U G40U]	0.07
GGCAGAGCCCAACACACCGUGGCAAAGUGGCUUUGGUUAGACUGCC [U9C G17C G33U C37U]	0.02
GGCAGAGCCCAACACAACGUUGCAAAGUGGCUGUGGCUAGACUGCC [U9C G17A G21U]	0.01
GGCAGAGCCCAACACAGCGUGGCAAACUGGCUGUGGCUAGAUUGGC [U9C G27C C42U C45G]	0
GGCAGAGCCCAACACAGCGUUGCAAAGUGGCUGUGACUAGACUGCC [U9C G21U G36A]	0.03
GGCAGAGCCCAACACAGCGUGGCAAAGUCGCUGUUGCUAGACUGCC [U9C G29C G35U]	0.01
GGCAGAGCCCAACACAGCAUGUCAAAGUGGCUGUGGCUAGCAUGCC [U9C G19A G22U A41C C42A]	0.03
GGCAGAGCCCAACACAGCGUGACAAAGUGGGUGUGGCUAGACUGCC [U9C G22A C31G]	0.01

Variant	self-cleavage
GGCAGAGCCCAACACAUCGUGGCAAAGUGGCUGUGGCUAGAUUGCC [U9C G17U C42U]	0.03
GGCAGAGCCCAACACAUCGUAGCAAAGUGGCUGUGGCUAGACUGCC [U9C G17U G21A]	0.02
GGCAGAGCCCAACACAUGGUGGCAAAGUGGCUGUGGCUAGACUGCC [U9C G17U C18G]	0.02
GGCAGAGCCCAACACAGCGUGGCAAACUGGCUGUGGCGAGACUGCC [U9C G27C U38G]	0.12
GGCAGAGCCCAACACAGCGUGGCAAACUGUCUGUGGCUAGACUGCC [U9C G27C G30U]	0.03
GGCAGAGCCCAACACAUCGUGGCAAAGUGGCUGUGGCUAGACUGUC [U9C G17U C45U]	0
GGCAGAGCCCAACACAGCGUGGCAAAGUGUCUGUGGCUAUACUGCC [U9C G30U G40U]	0.03
GGCAGAGCCCAACACAGCGUAGCAAACUGGCUGUGGCUAGACAGCC [U9C G21A G27C U43A]	0.03
GGCAGAGCCCAACACAUGUUGGCAAAGUGGCUGUGGCUAGACUGCC [U9C G17U C18G G19U]	0.02
GGCAGAGCCCAACACAGCGUGGCAAAGUGUCUGUGGCUAGAAUGCC [U9C G30U C42A]	0.03
GGCAGAGCCCAACACAGCGUGGCAAAGUUGCUGUGGCCAGACUGCC [U9C G29U U38C]	0.04
GGCAGAGCCCAACACAACGCGGCAAAGUGGCUGUGGCUAGACUGCC [U9C G17A U20C]	0.01
GGCAGAGCCCAACACAGCGUCGCAAAGUGGCUGGGACUAGACUGCC [U9C G21C U34G G36A]	0.04
GGCAGAGCCCAACACAGCGUGGCAAAGUUGCUGUCGCUGGACUGCC [U9C G29U G35C A39G]	0.02
GGCAGAGCCCAACACAGCGUGGCAAAGUUGGUGUGGUUAGACUGCC [U9C G29U C31G C37U]	0.08
GGCAGAGCCCAACACAGCGUGUCAAAGUGGCUGUGACUAGACUGCC [U9C G22U G36A]	0.16
GGCAGAGCCCAACACAGCGUGGCAAAGUGUCUGUGACUAGACUGCC [U9C G30U G36A]	0.02
GGCAGAGCCCAACACAGCCUGGGAAAGUGGCUGUGGCUAGACUGCC [U9C G19C C23G]	0.01
